From PubChem BioAssay AID1159614 (National Center for Advancing Translational Sciences (NCATS), 2016)
The whole screen tested about 45,000 compounds, of which about 65 (0.1%) were called active. Calls come from the whole dose curve; as a rule, active = well fitted activation curve with a large enough effect; inconclusive = small, poorly fitted or top-dose-only effect; inactive = no such curve, though single readings can be large or run the other way. Some of the results follow.

Molecular target: Galactocerebrosidase (Homo sapiens) (UniProt P54803)
Test: A Novel Cell-Based Assay to Identify Small Molecules for B -Galactocerebrosidase; note: nearly all actives have a fitted effect of over 65% in size; for activation: 0% is about no effect
Details: 145M-Twi-hGALC-G270D cells (Twitcher mouse brain line with human GALC G270D), HMU-beta-Gal fluorescence, 48 h; series mostly up to 57.5 µM; activation: at the top concentration
How it was run: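 Live 145M-Twi cells (Twitcher mouse brain-derived, GALC-null) stably expressing human GALC-G270D, with a wild-type GALC line, were compound-treated. Residual GALC activity was then read as fluorescence from 0.1 mM final HMU-β-gal at pH 5.2; higher signal means activation.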
Potency is the fitted concentration of half-maximal effect.

Chain of UniProt P54803 (P54803 whole entry, looked up): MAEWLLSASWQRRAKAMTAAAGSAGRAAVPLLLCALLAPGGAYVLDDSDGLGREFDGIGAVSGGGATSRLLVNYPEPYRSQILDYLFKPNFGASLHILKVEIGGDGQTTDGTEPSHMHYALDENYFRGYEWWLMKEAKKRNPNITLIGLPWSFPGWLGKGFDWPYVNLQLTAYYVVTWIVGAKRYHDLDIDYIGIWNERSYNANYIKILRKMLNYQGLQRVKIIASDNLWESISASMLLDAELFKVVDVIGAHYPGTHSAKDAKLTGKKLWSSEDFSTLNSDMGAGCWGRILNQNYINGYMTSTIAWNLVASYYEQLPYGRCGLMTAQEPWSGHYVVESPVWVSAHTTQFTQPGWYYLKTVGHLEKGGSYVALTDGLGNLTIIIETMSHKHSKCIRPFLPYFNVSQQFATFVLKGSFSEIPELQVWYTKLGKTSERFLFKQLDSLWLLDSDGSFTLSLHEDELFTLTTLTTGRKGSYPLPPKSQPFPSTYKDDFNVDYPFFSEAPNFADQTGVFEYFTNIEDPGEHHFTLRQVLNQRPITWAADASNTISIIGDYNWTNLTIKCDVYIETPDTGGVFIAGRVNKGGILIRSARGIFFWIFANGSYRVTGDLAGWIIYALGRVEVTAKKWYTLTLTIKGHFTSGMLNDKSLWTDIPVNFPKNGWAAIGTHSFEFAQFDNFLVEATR

Structure (SMILES) | activation | Potency
Cn1nnnc1SCCNCc1ccc(OCc2ccccc2)cc1 | inactive: -15.4% | 
COC(=O)c1sccc1S(=O)(=O)N(CC(=O)NCc1ccccc1)c1ccc(C)c(C)c1 | inactive: -5.59% | 
CCN(CC)CCCNC(=O)c1nn(-c2ccc(OC)c(Cl)c2)c(=O)c2c1c1ccccc1n2C | inactive: 0.894% | 
Cc1cccc(NC(=O)CN2C(=O)COc3ccc(S(=O)(=O)N4CCC(C)CC4)cc32)c1C | inactive: -6.36% | 
CCOc1ccc(NC(=O)CCS(=O)(=O)c2ccc(Br)s2)cc1 | inactive: -3.83% | 
CCOC(=O)C1CCN(C(=O)C2CCN(c3nnc(C)c4c(C)n(-c5ccccc5)nc34)CC2)CC1 | inactive: 6.74% | 
CC1(C)CO[C@@H](CC(=O)O)CN1 | inactive: -13% | 
Cc1nn(CC(=O)NCc2ccccc2Cl)c(=O)c2cccn12 | inactive: -15.8% | 
CCCC(=O)Nc1cc(C(=O)NCc2ccc(OC)cc2)ccc1S(=O)(=O)c1ccc(Cl)cc1 | inactive: -7.96% | 
Cc1cccc(-c2nc(CCNC(=O)c3ccccc3Br)cs2)c1 | inactive: -12% | 
CCOC(=O)c1ccccc1NC(=O)N1CCCN(S(=O)(=O)c2ccc3c(ccn3CC)c2)CC1 | inactive: 1.94% | 
CCc1ccc(CNC(=O)C2CCCN(c3nn4cc(-c5ccc(F)cc5)nc4s3)C2)cc1 (stereo not drawn) | inactive: -6.21% | 
CCOc1ccc(-c2nc3c(C#N)c[nH]n3c2NC2CCCCC2)cc1 | inactive: -18.9% | 
O=C(Nc1cc(F)ccc1F)c1ccc2c(c1)nnn2C1CCCC1 | inactive: -13.4% | 
COc1ccc(-c2noc(CSc3nnc(-c4ccccc4)n3-c3ccc(F)cc3)n2)c(OC)c1 | inactive: -16.7% | 
Cc1ccc(Cc2c(C)nn(-c3nc(C)c(C(=O)N4CCCCC4C)s3)c2C)cc1 (stereo not drawn) | inactive: -15.8% | 
COc1ccc(NC(=O)C2CCCN(S(=O)(=O)c3c(C)n[nH]c3C)C2)cc1OC (stereo not drawn) | inactive: -24.9% | 
CC(=O)Oc1ccc(C)cc1 | inactive: -20.2% | 
COc1ccc(-c2cc(OC(=O)c3ccc(F)cc3)c3c(C)oc(C)c3c(=O)c2)cc1OC | inactive: -15.1% | 
CCC(=O)N1CCc2cc(S(=O)(=O)NC(C(=O)NCCc3ccc(Cl)cc3)C(C)C)ccc21 (stereo not drawn) | inactive: -14% | 
Cc1cccc(NC(=O)CN2c3ccccc3S(=O)(=O)c3ccccc32)c1C | inactive: -18.9% | 
Cc1ccc(Cl)cc1NC(=O)C(NS(=O)(=O)c1cccc2nsnc12)c1ccccc1 (stereo not drawn) | inactive: -30.1% | 
Cc1ccc(C)c(N2CCN(c3nccn4nc(-c5ccc(Br)cc5)cc34)CC2)c1 | inactive: -1.03% | 
COc1ccc(NC(=O)C2CCCN(S(=O)(=O)c3ccc(Cl)cc3)C2)cc1 (stereo not drawn) | inactive: 1.29% | 

Structure (SMILES) | activation | Potency
O=C(NCc1ccccc1F)C1CCN(Cc2cc3ccccc3n2Cc2cccc(Cl)c2)CC1 | inactive: -7.14% | 
Cc1c(C(=O)OC2CCCCC2)[nH]c2c1C(=O)CC(c1ccccc1Cl)C2 (stereo not drawn) | inactive: -15.3% | 
Cc1cccn2c(=O)c(/C=C(\C#N)c3nc4ccccc4s3)c(Oc3ccc(Br)cc3)nc12 | inactive: -8.92% | 
Cc1ccccc1NC(=O)Nc1ccc2nc(N3CCN(C)CC3)cc(C)c2c1 | inactive: -8.07% | 
CC(=O)c1cc(-c2ccc(F)cc2)n(CC(=O)NC(C)c2ccccc2)c1C (stereo not drawn) | inactive: -9.64% | 
Cn1c(=O)oc2cc(S(=O)(=O)CCC(=O)NCCc3ccccc3)ccc21 | inactive: -21.1% | 
O=C(COCc1cc(-c2cccs2)on1)NCc1ccccc1Cl | inactive: -44.4% | 
Cc1nc2nc(NC(=O)c3ccc(F)cc3)[nH]n2c(=O)c1Cc1ccccc1 | inactive: -10.8% | 
COc1cc(C2c3c(oc4ccccc4c3=O)C(=O)N2c2nc(C)c(C)s2)ccc1O (stereo not drawn) | inactive: -8.18% | 
COc1cccc(C(=O)NC(=O)Nc2ccc(-n3nc(C(F)(F)F)cc3C(F)(F)F)cc2)c1 | inactive: -0.807% | 
COc1ccc(CNCc2ccc3c(c2)n(C)c(=O)n3C)cc1 | inactive: -17.8% | 
CC(=O)c1ccc(NC(=O)C2=CC(c3cccs3)=NS(=O)(=O)N2C)cc1 | inactive: -12.3% | 
Cc1cc(C)n(-c2nnc(Nc3ccc(C(C)C)cc3)c3ccccc23)n1 | inactive: 1.66% | 
NCCNC(=O)c1ccc(Cl)cn1 | inactive: -11.1% | 
Fc1ccc(Nc2c3c(nc4nncn24)CCC3)cc1 | inactive: -8.45% | 
COc1cc(Nc2nc(SCc3cccc(Cl)c3)nc3ccccc23)cc(OC)c1 | inactive: 0.252% | 
Cc1nc2c(c(C)nn2-c2ccccc2)c(C)c1CCC(=O)Nc1ccc(F)cc1 | inactive: -7.32% | 
Cc1ccc2nc(-c3ccc(NC(=O)C(F)(F)F)cc3)sc2c1 |  | active: 14.1 µM
Cc1ccc(NC(=O)Cn2cc(S(=O)(=O)Cc3ccc(F)cc3)c3ccccc32)cc1Cl | inactive: -8.36% | 
COc1ccc(-c2cc(C(F)(F)F)nc(SCC(=O)NCCc3ccccc3)n2)cc1 | inactive: 20.6% | 
CCOc1ccccc1C(=O)N(Cc1sccc1C)C1CCS(=O)(=O)C1 (stereo not drawn) | inactive: -7.95% | 
O=C(Nc1ccccc1)c1nc[nH]c1C(=O)O | inactive: -23.5% | 
Cc1cc(C)c2c(CC(=O)N(Cc3ccc(Cl)cc3)Cc3ccco3)coc2c1 | inactive: -8.2% | 
CCOC(=O)CSc1nc2cc3c(cc2c(=O)n1Cc1ccc(C(=O)NCCc2ccc(OC)c(OC)c2)cc1)OCO3 | inactive: -5.92% | 
